Assay results published in PubChem BioAssay AID686978 (National Center for Advancing Translational Sciences (NCATS), 2013).
The whole screen tested about 420,000 compounds, of which about 64,000 (15%) were called active. Inconclusive means that the source gave no clear call. Such entries were picked first, then a sample of the others. The call rests on the fitted dose curve; in most records, active means well fitted inhibition curve with a large enough effect; inconclusive means small, poorly fitted or top-dose-only effect; inactive means flat fitted curve, though single readings scatter. No potency is given beside an inconclusive call; the fits are too rough.

Assay: qHTS for Inhibitors of human tyrosyl-DNA phosphodiesterase 1 (TDP1): qHTS in cells in absence of CPT; further: nearly all actives have a fitted effect of over 55% in size
Conditions: DT40 Tdp1-/- hTDP1 cells, no CPT, ATP luminescence, 48 h; activity change, negative = growth inhibition: at 46.2 µM (top of the series) unless noted
Procedure, shortened: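 Camptothecin absent (DMSO only). Human TDP1-complemented DT40 knockout cells, 400 cells/well, 37 °C for minimum 48 hr; ATP measured via CellTiter-Glo, 30 min dark incubation, luminescence.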
On the % scale 0 is the no-effect control and ±100 the full control effect; potency means the concentration at half of the fitted maximal effect; tags describe the fitted curve by direction and shape.

Compound | Potency | activity change, negative = growth inhibition
CCOC(=O)CCS(=O)(=O)c1nc(-c2ccccc2)cc(C(F)(F)F)n1 | active: 0.651 µM | 
O=C(Nc1ccccc1C(=O)OCC(=O)c1c[nH]c2ccccc12)c1ccco1 | inconclusive [inhibitor, single point] | 
CC(C)(C)NC(=O)C(C1CC1)n1c(=O)c(-c2ccccc2)nc2ccccc21 (configuration not stated) | inconclusive [inhibitor, partial curve] | 
COc1ccc(N(C)S(=O)(=O)c2cccc(C(=O)NCc3ccc(C)cc3)c2)cc1 | inconclusive [inhibitor, single point] | 
Cc1cc(C)c2oc(-c3ccc(C)c(NC(=S)NC(=O)c4cccs4)c3)nc2c1 | inconclusive [inhibitor, single point] | 
CSc1ncccc1C(=O)NCC1Cc2cc(-c3cnccn3)ccc2O1 (configuration not stated) |  | inactive: -28.1%
COc1ccc(S(=O)(=O)N(C)C[C@H]2Oc3c(NC(=O)Nc4ccccc4)cccc3C(=O)N([C@H](C)CO)C[C@@H]2C)cc1 | inconclusive [inhibitor, partial curve] | 
COC(=O)/C=C(\C)N=Nc1c(O)[nH]c2ccccc12 | inconclusive [inhibitor, single point] | 
COc1ccc(-c2nc3scc(CCNC(=O)Cc4ccc(F)cc4)n3n2)cc1 | active: 25.9 µM | 
CCn1c(-c2cc(-c3ccccc3OC)nc3ccccc23)n[nH]c1=S | inconclusive [inhibitor, single point] | 
CC(=O)c1c(-c2ccc(Cl)cc2Cl)noc1C |  | inactive: -20%
CCCCC1=CC2=CC(=O)C(C)(OC(=O)CC)C(=O)C2=CN1CC(C)C (configuration not stated) | inconclusive [inhibitor, single point] | 
COc1ccccc1NS(=O)(=O)c1cccc(NS(=O)(=O)c2cc(C(=O)O)ccc2OC)c1 |  | inactive: 5.92%
CCOc1ccc(NS(=O)(=O)c2ccc3nc(-c4ccccc4)[nH]c3c2)cc1 | inconclusive [inhibitor, single point] | 
Cc1ccccc1-c1nnc(SCC(=O)N2CCCCC2)o1 | inconclusive [inhibitor, single point] | 
O=C1NC2(CCCCC2)Cc2ccccc21 |  | inactive: -27.4%
CCOC(=O)C1=C(CC)Nc2ccccc2N=C1NC(=O)c1cc(C)on1 | inconclusive [inhibitor, single point] | 
O=C(c1ccc(OC2CCN(C/C=C/c3ccccc3)CC2)cc1)N1CCCC1 | inconclusive [inhibitor, single point] | 
COc1cccc(/C=C2\SC(=S)N(CCCC(=O)N3CCCCC3)C2=O)c1 | inconclusive [inhibitor, single point] | 
Cc1cccc(-c2nnc(C(C)Nc3cccc(C(=O)NC4CC4)c3)o2)c1 (configuration not stated) | inconclusive [inhibitor, single point] | 
OCCC1CN(Cc2cc3ccccc3o2)CCN1Cc1ccc(F)cc1 (configuration not stated) | inconclusive [inhibitor, single point] | 
FC(F)(F)c1cc(-c2cccs2)nc2cc(-c3cccs3)nn12 |  | inactive: -24.8%
Cc1ccc(CNC(=O)CN(c2ccc(C(C)C)cc2)S(=O)(=O)c2c(C)noc2C)cc1 | inconclusive [inhibitor, single point] | 
OCCNc1cnc2ccccc2n1 | inconclusive [inhibitor, single point] | 

Compound | Potency | activity change, negative = growth inhibition
COc1ccc2sc(-c3ccc(SC)cc3)c(C#CC(C)(C)O)c2c1 | inconclusive [inhibitor, single point] | 
Cc1cc(NC(=O)Cc2ccccc2)c2ccccc2n1 | active: 2.59 µM | 
CCOCCCNC(=S)NCCc1ccccc1 |  | inconclusive: -34.4% [inhibitor]
CCOC(=O)Cc1csc(NC(=S)NC(=O)c2ccc(Cl)cc2)n1 | inconclusive [inhibitor, single point] | 
O=C(OCc1cn([C@H]2C[C@H](c3ccc(Cl)cc3)N(CC3CCCCC3)C[C@@H]2O)nn1)c1ccccc1 |  | inactive: -25.7%
CCCOC1CCCN(C(=O)c2cc(COc3ccc(F)c(F)c3)on2)C1 (configuration not stated) |  | inactive: -29.8%
O=C(NC1CCCN(c2ccc(C(F)(F)F)cn2)C1)c1cc(Cl)ccc1F (configuration not stated) | inconclusive [inhibitor, partial curve] | 
Cc1cnc(SCC2CCCO2)nc1C1CCCN(C(=O)C2=NNC(=O)CC2)C1 (configuration not stated) |  | inactive: -4.16%
COCCn1c(N2CCN(c3ccc(OC)cc3)CC2)nc2c1c(=O)n(C)c(=O)n2C |  | inconclusive: -33.6% [inhibitor]
COc1cc2[nH]c(C(=O)N3CCc4ccccc4C3)cc2c(OC)c1OC | active: 14.6 µM | 
COCCNC(=O)C1(C)CCCN(Cc2cc3ccccc3o2)C1 (configuration not stated) | inconclusive [inhibitor, single point] | 
COc1ccccc1NS(=O)(=O)c1c(C)[nH]c(C)c1C(=O)N1CCCC1 |  | inactive: 16.4%
COCCCN=C(c1ccco1)n1c(=S)nc(-c2ccco2)n(CCCOC)c1=S | inconclusive [inhibitor, single point] | 
COc1ccc(S(=O)(=O)N2CCOCC2)cc1C(=O)NCC(c1ccco1)N1CCCC1 (configuration not stated) |  | inactive: 14.9%
COc1cc(CN(C(=O)COc2ccc(Cl)c(C)c2)c2ccccn2)cc(OC)c1OC | active: 10.3 µM | 
Cc1csc2nc(COc3ccccc3NC(=O)c3ccccc3Cl)cc(=O)n12 | active: 3.66 µM | 
COc1ccc(CCNC(=O)CCCn2nc(C)c3sc4ccccc4c3c2=O)cc1OC | inconclusive [inhibitor, single point] | 
Cn1c(=O)cc(OCC(=O)NCc2ccc(F)cc2Cl)c2ccccc21 |  | inactive: -26.3%
COc1ccc(C(CNC(=O)c2cc3ccccc3o2)N2CCCC2)cc1 (configuration not stated) | inconclusive [inhibitor, partial curve] | 
Cc1ccc(-c2nc(CS(=O)(=O)CC(=O)Nc3cc(C)ccc3C)c(C)o2)cc1 | inconclusive [inhibitor, single point] | 
COc1ccc(NC(=O)c2sc3nc(C)nc(N4CCN(c5ccccn5)CC4)c3c2C)c(OC)c1 | active: 11.6 µM | 
Cc1ccc(-c2nc(Nc3ccc(O)cc3)c3ccccc3n2)cc1 | active: 20.6 µM | 
O=C(NC1CCN(Cc2ccccc2)CC1)C1COc2ccccc2O1 (configuration not stated) |  | inactive: -5.24%
FC(F)(F)c1ccccc1NC(=S)Nc1ccccc1 |  | inactive: -8.54%

Compound | Potency | activity change, negative = growth inhibition
Cc1ccc(-n2ncc(C(=O)Nc3c(Cl)cccc3Cl)c2C2CCNCC2)cc1 | inconclusive [inhibitor, single point] | 
C[C@@H]1[C@H](c2ccccc2)OCCS(=O)(=O)N1Cc1cccc(Cl)c1 | active: 12.6 µM | 
CC(C)(C)C1CCN2CCCC(c3ccccc3)(C1)C2=O (configuration not stated) | inconclusive [inhibitor, single point] | 
NC12CCc3c(no[n+]3[O-])C1(O)CC(c1ccccc1)=[N+]2[O-] (configuration not stated) |  | inactive: -6.17%
O=C(Nc1ccccc1)Nc1ccccc1 | inconclusive [inhibitor, single point] | 
O=C(O)CCCN1C(=O)/C(=C/c2ccc(-c3nc4ccccc4s3)o2)SC1=S | inconclusive [inhibitor, partial curve] | 
CC(=O)Nc1ccc(SC[C@H](Cc2ccccc2)N2CCN(CC(C)C)CCC2=O)cc1 | inconclusive [inhibitor, single point] | 
CC(=O)Nc1ccc(S(=O)(=O)N2CCN(CC3CC4C=CC3C4)CC2)cc1 (configuration not stated) | inconclusive [inhibitor, partial curve] | 
O=C(NC1CCCCC1)C(c1c(F)cccc1Cl)N(C(=O)c1csnn1)C1CC1 (configuration not stated) |  | inactive: -25.2%
Fc1ccc(C2CC(c3cccs3)=NN2C(=S)Nc2ccccc2)cc1 (configuration not stated) | inconclusive [inhibitor, single point] | 
CCOc1ccc2c(c1)[nH]c(=S)n2C |  | inactive: 8.96%
COCc1cc(=O)[nH]c(Nc2nc(C)c3ccccc3n2)n1 | active: 16.4 µM | 
CC(=O)Nc1nnc(SCC(=O)N2CCCc3ccccc32)s1 |  | inactive: 0.0453%
Cc1[nH]n(-c2ccccc2)c(=O)c1/C=N/NC(=O)c1cccc([N+](=O)[O-])c1 | active: 0.651 µM | 
CC(=O)NC(Cc1ccc(F)c(F)c1)C(=O)NC1CCN(c2c(Cc3ccccc3)c(C)nc3ncnn23)CC1 (configuration not stated) | inconclusive [inhibitor, single point] | 
CC(=O)OC1c2ccccc2C(=O)N1Cc1ccccc1Cl (configuration not stated) |  | inactive: -25.9%
O=C(Cn1c2ccccc2c(=O)c2ccccc21)Nc1ccccc1F | inconclusive [inhibitor, single point] | 
CSc1ccc(CCNC(=O)c2ccc(CS(=O)Cc3ccc(Cl)cc3)o2)cc1 (configuration not stated) | active: 20.6 µM | 
COc1ccc(S(=O)(=O)N2CCCC(C(=O)NCc3cccnc3)C2)cc1 (configuration not stated) |  | inconclusive: -39.2% [inhibitor]
O=C(NCCn1cc(SCc2ccccc2)c2ccccc21)c1ccccc1F | inconclusive [inhibitor, single point] | 
O=C(CSc1nc(-c2cccs2)nc2cc(=O)[nH]n12)Nc1ccccc1Cl | inconclusive [inhibitor, single point] | 
Cc1nc2ccc(NS(=O)(=O)c3ccc(Br)cc3)cc2s1 | active: 5.17 µM | 
Clc1ccc2c(c1)nc1n2CCCC1 | inconclusive [inhibitor, single point] | 
Cc1cc(Cl)ccc1C(=O)C1CCCN(C(=O)c2cccc(N3CCCC3=O)c2)C1 (configuration not stated) | inconclusive [inhibitor, single point] | 
